Single values are uncertain, as repeats are few or missing.
Columns and labels:
[1] = system: CHO-K1; test: hypodiploid nuclei frequency (% of nucleated events); higher = more hypodiploid events (aneugenic)
Method: (§1)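 Flow-cytometric in vitro micronucleus assay (Litron MicroFlow) in CHO-K1 cells in 96-well plates, 19 concentrations (4.5-200 µM, n=1 per concentration). Without S9, cells were exposed for 24 h and sampled at 48 h. With Aroclor 1254-induced rat liver S9, cells were exposed for 3-4 h and sampled at 27-28 h. Read-outs are %MN and %hypodiploid nuclei relative to nucleated events, and relative survival as the nuclei-to-bead ratio versus the 1% DMSO vehicle control (x100).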

[2] = system: CHO-K1; test: micronucleus frequency (% of nucleated events); higher = more micronuclei (genotoxic)
[3] = system: CHO-K1; test: relative survival (nuclei to bead ratio vs DMSO control) (% of vehicle control); higher = more surviving cells
Method: as §1
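Wherever hypodiploid nuclei frequency (% of nucleated events) is given: hypodiploid nuclei gated on a flow cytometer with 488 nm excitation after SYTOX Green staining, cultures at 37 °C, positive controls vinblastine without S9 and cyclophosphamide with S9.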
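Wherever micronucleus frequency (% of nucleated events) is given: cells lysed with nuclei stained by SYTOX Green, then micronucleus-gated events counted against nucleated events by flow cytometry with 488 nm excitation.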
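Wherever relative survival (nuclei to bead ratio vs DMSO control) is given: Lysed-cell nuclei stained with SYTOX Green and counted against counting beads by flow cytometry at 488 nm excitation, with vinblastine (no S9) and cyclophosphamide (plus S9) as positive controls.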

Oc1cccc2cccnc12 [8-Hydroxyquinoline]
Conditions | hypodiploid nuclei frequency, [1] [%] | micronucleus frequency, [2] [%] | relative survival, [3]
concentration: 4.5 (µM), S9 metabolic activation: with S9, exposure time: 3-4 hours | 0.32 | 1.56 | 67.6
concentration: 4.5 (µM), S9 metabolic activation: without S9, exposure time: 24 hours | 0.86 | 1.56 | 108
concentration: 5.63 (µM), S9 metabolic activation: with S9, exposure time: 3-4 hours | 0.26 | 2.1 | 82.7
concentration: 5.63 (µM), S9 metabolic activation: without S9, exposure time: 24 hours | 0.92 | 1.82 | 71
concentration: 7.04 (µM), S9 metabolic activation: with S9, exposure time: 3-4 hours | 0.26 | 1.58 | 77.3
concentration: 7.04 (µM), S9 metabolic activation: without S9, exposure time: 24 hours | 0.74 | 2.06 | 65.4
concentration: 8.8 (µM), S9 metabolic activation: with S9, exposure time: 3-4 hours | 0.22 | 1.48 | 82
concentration: 8.8 (µM), S9 metabolic activation: without S9, exposure time: 24 hours | 0.7 | 1.9 | 80.2
concentration: 11 (µM), S9 metabolic activation: with S9, exposure time: 3-4 hours | 0.18 | 1.62 | 82.8
concentration: 11 (µM), S9 metabolic activation: without S9, exposure time: 24 hours | 0.76 | 2.44 | 54.6
concentration: 13.7 (µM), S9 metabolic activation: with S9, exposure time: 3-4 hours | 0.34 | 2.22 | 102
concentration: 13.7 (µM), S9 metabolic activation: without S9, exposure time: 24 hours | 0.51 | 1.69 | 46.8
concentration: 17.2 (µM), S9 metabolic activation: with S9, exposure time: 3-4 hours | 0.38 | 2.2 | 92.2
concentration: 17.2 (µM), S9 metabolic activation: without S9, exposure time: 24 hours | 0.62 | 1.45 | 42.8
concentration: 21.5 (µM), S9 metabolic activation: with S9, exposure time: 3-4 hours | 0.38 | 2.56 | 86.5
concentration: 21.5 (µM), S9 metabolic activation: without S9, exposure time: 24 hours | – | – | 38.6
concentration: 26.8 (µM), S9 metabolic activation: with S9, exposure time: 3-4 hours | 0.36 | 3.16 | 44.2
concentration: 26.8 (µM), S9 metabolic activation: without S9, exposure time: 24 hours | 0.56 | 2.58 | 46.1
concentration: 33.6 (µM), S9 metabolic activation: with S9, exposure time: 3-4 hours | – | – | 19.8
concentration: 33.6 (µM), S9 metabolic activation: without S9, exposure time: 24 hours | – | – | 39
concentration: 41.9 (µM), S9 metabolic activation: with S9, exposure time: 3-4 hours | – | – | 5.74
concentration: 41.9 (µM), S9 metabolic activation: without S9, exposure time: 24 hours | 0.52 | 3.18 | 48
concentration: 52.4 (µM), S9 metabolic activation: with S9, exposure time: 3-4 hours | – | – | 1.18
concentration: 52.4 (µM), S9 metabolic activation: without S9, exposure time: 24 hours | 0.24 | 3.18 | 47.9
concentration: 65.5 (µM), S9 metabolic activation: without S9, exposure time: 24 hours | 0.42 | 2.93 | 42.1
concentration: 81.9 (µM), S9 metabolic activation: without S9, exposure time: 24 hours | 0.48 | 2.16 | 50.4
concentration: 102 (µM), S9 metabolic activation: without S9, exposure time: 24 hours | 0.62 | 3.92 | 58.1
concentration: 128 (µM), S9 metabolic activation: without S9, exposure time: 24 hours | 0.68 | 4.54 | 55
concentration: 160 (µM), S9 metabolic activation: without S9, exposure time: 24 hours | 0.53 | 3.54 | 43
concentration: 200 (µM), S9 metabolic activation: without S9, exposure time: 24 hours | 0.4 | 2.27 | 44.9

C#C[C@]1(O)CC[C@H]2[C@@H]3CCc4cc(O)ccc4[C@H]3CC[C@@]21C [17alpha-Ethinylestradiol]
Conditions | hypodiploid nuclei frequency, [1] [%] | micronucleus frequency, [2] [%] | relative survival, [3]
concentration: 4.5 (µM), S9 metabolic activation: with S9, exposure time: 3-4 hours | 0.36 | 1.86 | 126
concentration: 4.5 (µM), S9 metabolic activation: without S9, exposure time: 24 hours | 2.98 | 3.3 | 95.3
concentration: 5.63 (µM), S9 metabolic activation: with S9, exposure time: 3-4 hours | 0.34 | 1.9 | 131
concentration: 5.63 (µM), S9 metabolic activation: without S9, exposure time: 24 hours | 5.72 | 5.44 | 95.3
concentration: 7.04 (µM), S9 metabolic activation: with S9, exposure time: 3-4 hours | 0.34 | 1.56 | 119
concentration: 7.04 (µM), S9 metabolic activation: without S9, exposure time: 24 hours | 9.86 | 7.18 | 78.3
concentration: 8.8 (µM), S9 metabolic activation: with S9, exposure time: 3-4 hours | 0.36 | 1.24 | 121
concentration: 8.8 (µM), S9 metabolic activation: without S9, exposure time: 24 hours | 15.8 | 9.58 | 79.2
concentration: 11 (µM), S9 metabolic activation: with S9, exposure time: 3-4 hours | 0.24 | 1.7 | 112
concentration: 11 (µM), S9 metabolic activation: without S9, exposure time: 24 hours | 20.5 | 13.4 | 71.6
concentration: 13.7 (µM), S9 metabolic activation: with S9, exposure time: 3-4 hours | 0.28 | 1.94 | 128
concentration: 13.7 (µM), S9 metabolic activation: without S9, exposure time: 24 hours | 29 | 18.2 | 67.7
concentration: 17.2 (µM), S9 metabolic activation: with S9, exposure time: 3-4 hours | 0.2 | 1.6 | 121
concentration: 17.2 (µM), S9 metabolic activation: without S9, exposure time: 24 hours | 32.5 | 25.6 | 52.5
concentration: 21.5 (µM), S9 metabolic activation: with S9, exposure time: 3-4 hours | 0.38 | 1.66 | 116
concentration: 21.5 (µM), S9 metabolic activation: without S9, exposure time: 24 hours | 28.4 | 29 | 43.7
concentration: 26.8 (µM), S9 metabolic activation: with S9, exposure time: 3-4 hours | 0.48 | 1.7 | 136
concentration: 26.8 (µM), S9 metabolic activation: without S9, exposure time: 24 hours | – | – | 32.8
concentration: 33.6 (µM), S9 metabolic activation: with S9, exposure time: 3-4 hours | 0.48 | 1.74 | 124
concentration: 33.6 (µM), S9 metabolic activation: without S9, exposure time: 24 hours | – | – | 25.1
concentration: 41.9 (µM), S9 metabolic activation: with S9, exposure time: 3-4 hours | 0.54 | 2.7 | 133
concentration: 41.9 (µM), S9 metabolic activation: without S9, exposure time: 24 hours | – | – | 20.2
concentration: 52.4 (µM), S9 metabolic activation: with S9, exposure time: 3-4 hours | 0.42 | 1.42 | 106
concentration: 52.4 (µM), S9 metabolic activation: without S9, exposure time: 24 hours | – | – | 26.2
concentration: 65.5 (µM), S9 metabolic activation: with S9, exposure time: 3-4 hours | 0.2 | 2.08 | 100
concentration: 65.5 (µM), S9 metabolic activation: without S9, exposure time: 24 hours | – | – | 24.9
concentration: 81.9 (µM), S9 metabolic activation: with S9, exposure time: 3-4 hours | 0.32 | 3.32 | 79.1
concentration: 81.9 (µM), S9 metabolic activation: without S9, exposure time: 24 hours | – | – | 28.4
concentration: 102 (µM), S9 metabolic activation: with S9, exposure time: 3-4 hours | 0.37 | 7.65 | 53.4
concentration: 102 (µM), S9 metabolic activation: without S9, exposure time: 24 hours | – | – | 25.5
concentration: 128 (µM), S9 metabolic activation: with S9, exposure time: 3-4 hours | – | – | 24.9
concentration: 128 (µM), S9 metabolic activation: without S9, exposure time: 24 hours | – | – | 31.2
concentration: 160 (µM), S9 metabolic activation: with S9, exposure time: 3-4 hours | – | – | 3.57
concentration: 160 (µM), S9 metabolic activation: without S9, exposure time: 24 hours | – | – | 17.1
concentration: 200 (µM), S9 metabolic activation: without S9, exposure time: 24 hours | – | – | 0.05
